Test results published in PubChem BioAssay AID493208 (National Center for Advancing Translational Sciences (NCATS), 2011).
Screen size: about 44,000 compounds; about 340 (0.77%) were called active. About 5% were inconclusive and are not listed. Calls come from the whole dose curve; as a rule, active = well fitted inhibition curve with a large enough effect; inconclusive = small, poorly fitted or top-dose-only effect; inactive = flat fitted curve, though single readings scatter. The list shows a part of the results.

Assay: Acumen qHTS Assay for Inhibitors of the mTORC1 Signaling Pathway in MEF (Tsc2-/-, p53-/-) Cells: Sytravon;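 note: plate controls were DMSO for no effect and rapamycin for full effect; nearly all actives have a fitted effect of over 50% in size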
Settings: phospho-rpS6 immunofluorescence/PI, 24 h; series mostly up to 38.3 µM; activity change, negative = inhibition: at the top concentration
Method in brief: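 Tsc2-/-, p53-/- MEFs (empty-vector stable line) in DMEM + 10% FBS were treated with compounds 24 h at 37 degree Celsius, fixed, and immunostained for phospho-rpS6 (Alexa-488) with propidium iodide counterstain. Laser-scanning cytometry gave % positive cells, normalized against 7.5 nM rapamycin and DMSO.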

Activity change, negative = inhibition, inactive:
COc1ccc(CNC(=O)Cn2nc(N3CCN(c4ccccc4)CC3)ccc2=O)c(OC)c1 0.189%, CC1=C(C(=O)Nc2ccccc2)C(c2ccncc2)n2nc(SCc3ccccc3F)nc2N1 (stereo not given) 0%, CCC(C)Nc1oc(-c2ccc(COc3ccc(Cl)cc3)o2)nc1C#N (stereo not given) -15%, O=C(Nc1ccc(OCc2cc(=O)n3ccccc3n2)cc1)c1ccccc1Cl 0.992%, CCC(C)NC(=O)CSc1nc2c(sc3ccccc32)c(=O)n1CCc1ccc(OC)c(OC)c1 (stereo not given) -0.207%, CCN(CC)c1nc2c(S(=O)(=O)c3cccc(Cl)c3)nnn2c2ccsc12 5.02%, CCn1cc(C(=O)NCc2ccc(C)cc2)c(=O)c2cc(S(=O)(=O)N(C)C3CCCCC3)ccc21 -14.9%, CCc1ccc(CN(Cc2ccco2)C(=O)COc2ccc(Cl)c(C)c2)cc1 -16.6%, CCN1CCN(C(=O)Cn2c(-c3cccs3)cc3ccccc32)CC1 -9.55%, COc1cccc(OCc2cc(=O)n3c(-c4ccccc4)csc3n2)c1 0.0737%, COc1nc(-c2ccccc2)ccc1-c1noc(-c2ccccc2Br)n1 13.5%, COC(=O)c1cccc(NC(=O)c2nsc3ccccc23)c1 -3.5%, COc1ccc(CCNC(=O)c2ccc3c(c2)N(Cc2ccccc2F)C(=O)c2ccccc2S3=O)cc1OC (stereo not given) 6.21%, O=C(CN1C(=O)COc2ccc(S(=O)(=O)N3CCCC3)cc21)N1CCN(c2cccc(C(F)(F)F)c2)CC1 -10.2%, CCOc1ccccc1CNC(=O)CCc1c(C)nn(-c2ccc(N3CCOCC3)nn2)c1C 2.85%, CCN(CC)S(=O)(=O)c1ccc(C(=O)NCCSc2c(-c3ccc(C)cc3)[nH]c3ccccc23)cc1 1.19%, COc1ccc(N2CCN(S(=O)(=O)CCNC(=O)COc3ccccc3F)CC2)cc1 0%, CCOC(=O)CSc1nc(-c2ccc(Cl)cc2)cc(C(F)(F)F)c1C#N -7.04%, Cc1ccc(C(=O)Oc2c(S(=O)(=O)c3ccccc3)c(C)nn2-c2ccccc2)cc1 -14.7%, Cc1cn2c(=O)cc(COC(=O)c3cccc(NC(=O)COc4ccccc4C)c3)nc2s1 0%, Cc1ccccc1C(=O)NCCc1csc(-c2ccc(C(F)(F)F)cc2)n1 -29.9%, COc1ccc(-n2c(-c3ccc(C)cc3)cc3c2CC(C)(C)CC3=O)c(OC)c1 -18.2%, Cc1ccc(Cc2nc3ccccc3nc2SCC(=O)N2CCCc3ccccc32)cc1 10.2%, Cc1c(-c2nc(-c3ccccc3F)no2)nnn1-c1cc(F)ccc1F -3.81%, Cc1ccc(CNC(=O)CSc2c3c(nc4cc(Cl)ccc24)CCCC3)cc1 -6.2%, CCCNC(=O)C(C)n1nc(C)c2c(C)n(-c3ccccc3)nc2c1=O (stereo not given) -4.57%, O=c1oc2cc(O)ccc2cc1-c1nnc(Nc2ccccc2F)s1 -9.14%, CCOc1ccccc1NC(=O)Cn1c(=O)n(Cc2ccco2)c(=O)c2ccc(C(=O)NC3CCCC3)cc21 -1.71%, COc1ccc(Cl)cc1NC(=O)Cn1nc(Cc2ccncc2)c2ccccc2c1=O -5.7%, Cc1cc(F)ccc1NC1(c2ccccc2)C(=O)c2ccccc2C1=O -1.29%, CCc1ccccc1NC(=O)C1CCN(C(=O)N2CC(C)Oc3ccc(Cl)cc32)CC1 (stereo not given) -3.32%, COc1ccccc1NC(=O)N1CCC(CN2CCc3ccccc3C2)CC1 -2.34%, Cc1ccc(OC(=O)CSc2nnc(-c3cccs3)o2)cc1C 0.202%, CCn1cc(C(=O)NCCc2ccc(OC)c(OC)c2)c(=O)c2cc(S(=O)(=O)N3CCC(C)CC3)ccc21 2.45%, CCOc1ccc(-n2c(SCC(=O)N3CCCCCC3)nc3c([nH]c4ccccc43)c2=O)cc1 -0.326%, CCOc1ccc(N(CC(=O)Nc2ccccc2CC)S(=O)(=O)c2c(C)[nH]c(=O)[nH]c2=O)cc1 -7.24%, Cc1ccc(NC(=O)c2sc3nc[nH]c(=O)c3c2C)cc1Cl 0.0717%, Cc1ccc(NC(=O)Cn2c(=O)oc3ccccc32)cc1C 0.466%, Cc1c(Cl)cccc1-n1ncc(C(=O)NCc2cccs2)c1C1CCN(C(=O)OC(C)(C)C)CC1 1.15%, COC(=O)c1c(NC(=O)c2cc(OC)c(OC)c(OC)c2Br)sc2c1CCC(C)C2 (stereo not given) -0.531%, Cc1cccc(NC(=O)c2cc(S(=O)(=O)N3CCN(c4ccccc4F)CC3)ccc2F)c1C 0.255%, COc1ccc(CNC(=O)CCn2nc(C)c3c(C)n(-c4ccccc4)nc3c2=O)c(OC)c1 0.484%, CNC(=O)Cn1c(=O)c2cccn2c2ccc(F)cc21 0.727%, COc1cc(C2c3c(-c4ccc(C)cc4)n[nH]c3C(=O)N2c2ccc(F)cc2)ccc1O (stereo not given) -11.3%, CC(C)CNc1ncnc2c1nnn2C 0.691%, O=C(CCNS(=O)(=O)c1cccc2nsnc12)NCc1ccccc1 -15.2%, COc1ccc(CNC(=O)c2ccc3nc(CCc4ccccc4)oc3c2)c(OC)c1 -2.73%, COc1ccc(OC)c(C2C(C(=O)N3CCCCC3)=C(C)Nc3nc4ccccc4n32)c1 (stereo not given) -1.71%, CC(C)(C)c1ccc(CN(Cc2ccco2)c2cnc(S(C)(=O)=O)nc2C(=O)Nc2ccc(F)cc2)cc1 -5.07%, Cc1cc(C)c(NC(=O)Cn2c(=O)nc(-c3ccccc3)c3cc(Cl)ccc32)c(C)c1 12.2%, COc1cc(NC(=O)N2CCC3(CC2)Nc2cc(F)ccc2-n2cccc23)cc(OC)c1OC 4.38%, Cc1cc(=O)n(Cc2cccc(F)c2)c2c1c(C)nn2-c1cccc(F)c1 -12.2%, CCc1cccc(CC)c1-n1nnc2c(sc3nc(C)cc(C)c32)c1=O -0.501%, Cc1ccccc1CN1c2ccccc2-c2nc(SCC(N)=O)ncc2S1(=O)=O 0.493%, CCc1ccc(-c2nn(CC(=O)Nc3ccccc3C)c3c2cnc2ccc(C)cc23)cc1 -4.51%, O=C(CSc1nc(-c2ccc(F)cc2)[nH]c1-c1ccccc1)Nc1ccccc1 8.53%, Clc1ccc(OCc2nc3ccccc3n2Cc2ccccc2)c(Cl)c1 -4.78%, COc1cc(/C=C/c2nc(C#N)c(NCCc3ccccc3)o2)cc(OC)c1OC -17.1%, CC(C)(C)C1CCc2c(sc3nnn(CCOc4ccccc4)c(=O)c23)C1 (stereo not given) 2.42%, Cc1ccc(C)c(NC(=O)c2nn(C)c3c2CS(=O)(=O)c2ccccc2-3)c1 -12.4%, COc1cc(NC(=O)c2nc3ccccc3nc2N2CCCCC2)cc(OC)c1OC 0.808%, Cc1cccc(-c2nc(CSCC(=O)NCCc3ccc(Cl)cc3)c(C)o2)c1 2.47%, Cc1ccc(CNC(=O)c2ccc(-c3nc(CS(=O)c4ccccc4)c(C)o3)cc2)cc1 (stereo not given) -3.88%, Cc1ccc(-c2nn(CC(=O)NC3CCCC3)c3c2cnc2ccccc23)cc1 -19.4%, Cc1ccc(C)c(NC(=O)CN2C(=O)c3cccnc3Oc3ccc(C)cc32)c1 -5.24%, COCCn1ccc2c(OCC(=O)Nc3ccccc3F)cccc2c1=O -3.38%, CCOC(=O)N1CCc2c(sc3c2c(=O)n(CCc2ccccc2)c(=O)n3CC(=O)Nc2cccc(C)c2)C1 10.5%, CCn1nc(C)c(CCN(C)C(=O)Nc2cc(C)cc(C)c2)c1C 0%, Cc1ccc(CSc2nc3ccc(NC(=O)COc4ccc(F)cc4)cc3s2)cc1 -0.986%, O=C(Nc1cnc(N2CCC(N3CCCCC3)CC2)c(C(=O)O)c1)c1ccc(Br)cc1 2.72%, COc1ccccc1NC(=O)c1c(NC(=O)Cc2ccccc2)sc2c1CCC(C(C)(C)C)C2 (stereo not given) 0.318%, COc1ccc(-n2c(=O)c3c(c4cc(OC)ccc4n3C)n(Cc3ccc(F)cc3Cl)c2=O)cc1 0.0886%, COc1ccc(-c2cc(C(C)=O)c(C)n2CCC(=O)Nc2ccc(C(F)(F)F)cc2)cc1 -11.5%, COc1ccccc1NC(=O)Cn1c(=O)n(Cc2ccccc2)c(=O)c2c3c(sc21)CN(C(C)=O)CC3 0.374%, CCn1ccc2c(OCC(=O)NCc3ccc(C)cc3)cccc2c1=O 0.108%, Cc1cc(C)nc(-n2nc(C)c3c2NC(=O)CC3c2cc(F)ccc2F)n1 (stereo not given) -0.816%, Cn1c(=O)cc(SCC(=O)N2CCN(c3ccccc3F)CC2)c2cc(Cl)ccc21 -2.47%, CC(C)Sc1ncc(Cl)c(C(=O)Nc2ccc(S(=O)(=O)Nc3ncccn3)cc2)n1 -2.57%, Cc1ccc(NC(=O)c2cc3c([nH]c2=O)CC(C)(C)CC3=O)c(C)c1 -2.91%, Cc1cc(Cl)ccc1OCC(=O)Nc1c(C(=O)c2ccccc2)oc2ccccc12 8.68%, O=C(CSc1ncc(-c2ccccc2)[nH]1)Nc1cccc(C(F)(F)F)c1 3.85%, COc1cc(Cn2c(=O)sc3ccccc32)ccc1OCCC(C)C -6.29%, CC(C)c1ccc2c(c1)-c1ccccc1S(=O)(=O)N2CC(=O)N1CCCCC1 -12.6%, Cc1ccccc1-c1nc(CS(=O)(=O)CC(=O)Nc2cc(Cl)cc(Cl)c2)c(C)o1 -1.68%, Cc1ccccc1CCNC(=O)C1CCN(c2nc3ccccc3nc2C(F)(F)F)CC1 7.06%, CCOc1ccc(C(=O)NCCn2cc(SCC(=O)Nc3ccccc3)c3ccccc32)cc1 10.5%, COC(=O)c1cc(NC(=O)c2sc3ncn(Cc4cccc(F)c4)c(=O)c3c2C)cc(C(=O)OC)c1 1.93%, COc1cc(CN(C(=O)c2cccc(C)c2)c2ccccn2)cc(OC)c1OC -1.4%, Cc1ccc(-n2c(SCC(=O)NCc3ccccc3)nc3c([nH]c4ccccc43)c2=O)cc1 4.75%, COc1ccccc1NC(=O)CCS(=O)(=O)c1cc2c3c(c1)CCN3C(=O)CC2 -1.37%, CCC1CCCCN1C(=O)c1nn(-c2ccc(OC)cc2)c(=O)c2c1c1ccccc1n2C (stereo not given) 0.329%, O=C(NCc1ccccc1Cl)c1cc(=O)[nH]c2ccc(S(=O)(=O)N3CCCCC3)cc12 7.65%, CCN(Cc1ccccc1)C(=O)CN1C(=O)COc2ccc(S(=O)(=O)N(CC)CC)cc21 -2.1%, COc1ccccc1CNC(=O)Cn1c(=O)oc2cc(S(=O)(=O)NCc3ccccc3)ccc21 -11.7%, CC1=C(C(=O)Nc2ccc(Cl)cc2)C(C(C)C)n2nc(SCc3ccc(Cl)cc3)nc2N1 (stereo not given) -0.853%
